Reference: the antibiotic and cytotoxicity screens of Wong et al. (2023)
Some of the results follow.

These compounds were tested on HSkMC (human skeletal muscle cells) (assay: cytotoxicity call (relative viability < 0.9)). Conditions: 10 µM.

Structure (SMILES)	cytotoxicity call
C[C@@H]1CCCCO[C@H](CN(C)S(C)(=O)=O)[C@@H](C)CN([C@H](C)CO)C(=O)c2cc(NC(=O)c3ccncc3)ccc2O1	inactive
CC(C)NC(=O)Nc1ccc2c(c1)C(=O)N([C@H](C)CO)C[C@H](C)[C@@H](CN(C)C(=O)Nc1cccc3ccccc13)OCCCC[C@H](C)O2	inactive
N[C@H]1CCCC[C@@H]1N1C(=O)CSC1=O	inactive
Cc1ccc(S(=O)(=O)N(C)C[C@H]2Oc3ccc(NC(=O)NC(C)C)cc3C(=O)N([C@@H](C)CO)C[C@@H]2C)cc1	inactive
COCC(=O)N1C[C@H](C)[C@H](OC)CN(C)C(=O)c2cc(NC(=O)Nc3cccc(F)c3)ccc2OC[C@@H]1C	inactive
C[C@@H]1CN([C@H](C)CO)C(=O)c2cc(NS(=O)(=O)c3ccccc3)ccc2O[C@@H](C)CCCCO[C@H]1CN(C)Cc1ccc(Cl)c(Cl)c1	inactive
Cc1ccc(S(=O)(=O)Nc2ccc3c(c2)C(=O)N([C@@H](C)CO)C[C@H](C)[C@H](CN(C)C(=O)Nc2cccc4ccccc24)OCCCC[C@H](C)O3)cc1	inactive
O=C1CN(S(=O)(=O)Cc2ccccc2)C[C@H]2[C@@H](c3ccc(C#Cc4ccc(F)cc4)cc3)[C@H](CO)N12	inactive
COc1ccc(NC(=O)N(C)C[C@@H]2OCCCC[C@H](C)Oc3ccc(NC(=O)c4ccccc4)cc3C(=O)N([C@H](C)CO)C[C@H]2C)cc1	inactive
COc1ccc([Si](C)(C)[C@H]2[C@H](CC(=O)N3Cc4ccccc4C[C@H]3CO)O[C@@]3(C(=O)N(Cc4cccc(N5CCOC5=O)c4)c4ccccc43)[C@@H]2C)cc1	inactive
CNC(=O)C[C@H]1CC[C@@H]2[C@H](COC[C@H](O)CN2C(=O)Nc2ccc3c(c2)OCO3)O1	inactive
C[C@H](CO)N1C[C@H](C)[C@@H](CN(C)C(=O)C2CCCCC2)OCCCC[C@H](C)Oc2ccc(NC(=O)Nc3ccccc3)cc2C1=O	inactive
O=C(CN1CCOCC1)NCC[C@@H]1CC[C@@H](NC(=O)Nc2ccccc2)[C@H](CO)O1	inactive
Cc1noc(C)c1NC(=O)N(C)C[C@@H]1Oc2ccc(NC(=O)CCCN(C)C)cc2C(=O)N([C@@H](C)CO)C[C@@H]1C	inactive
Nc1ncn([C@H]2C[C@H](O)[C@@H](CO)O2)c(=O)n1	inactive
C[C@@H]1CN([C@H](C)CO)C(=O)c2cc(NS(=O)(=O)c3cn(C)cn3)ccc2O[C@H]1CN(C)Cc1ccc(C(=O)O)cc1	inactive
C[C@@H]1CN([C@@H](C)CO)C(=O)c2cc(NC(=O)Cc3cn(C)c4ccccc34)ccc2O[C@@H]1CN(C)S(=O)(=O)c1cn(C)cn1	inactive
CCc1c(C(=O)OC)nnn1-c1nonc1N	inactive
CC1(C)S[C@@H]2[C@H](NC(=O)[C@H](N)c3ccc(O)cc3)C(=O)N2[C@H]1C(=O)O	inactive
CC(C)NC(=O)Nc1ccc2c(c1)CC(=O)N([C@@H](C)CO)C[C@H](C)[C@@H](CN(C)S(=O)(=O)c1ccc(F)cc1)O2	inactive
COCC#Cc1ccc2c(c1)O[C@@H](CN(C)C(=O)c1ccccc1F)[C@@H](C)CN([C@@H](C)CO)S2(=O)=O	inactive
COc1cccc(-c2ccc3c(c2)O[C@@H](CN(C)C(=O)C2CC2)[C@H](C)CN([C@@H](C)CO)S3(=O)=O)c1	inactive
C[C@@H]1CN([C@@H](C)CO)C(=O)c2cc(NC(=O)Nc3ccc(F)cc3)ccc2O[C@@H]1CN(C)CC1CCCCC1	inactive
COc1ccc(NC(=O)Nc2cccc3c2O[C@@H](CN(C)Cc2ccc(C(F)(F)F)cc2)[C@@H](C)CN([C@@H](C)CO)C3=O)cc1	inactive
COc1ccccc1S(=O)(=O)N1C[C@@H](O)COC[C@@H]2O[C@@H](CC(=O)O)CC[C@H]21	inactive
CC/C=C\C/C=C\C/C=C\C/C=C\C/C=C\C/C=C\CCC(=O)OCC	inactive
C[C@@H]1CN([C@@H](C)CO)C(=O)c2c(c3ccccc3n2C)-c2ccccc2CO[C@@H]1CN(C)Cc1ccccc1	inactive
O=C1CCNCCN1	inactive
C[C@H](CO)N1C[C@H](C)[C@@H](CN(C)C(=O)CCC(F)(F)F)OCCCC[C@H](C)Oc2ccc(NC(=O)CCC(F)(F)F)cc2C1=O	inactive
C[C@H]1CCCCO[C@@H](CN(C)S(=O)(=O)c2ccc(F)cc2)[C@@H](C)CN([C@@H](C)CO)C(=O)c2cc(NC(=O)CCC(F)(F)F)ccc2O1	inactive
